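Protocol summary: plate cells (96-well), add compound at 5 concentrations, incubate 48 h, interpolate endpoints linearly. GI50: concentration for 50% inhibition of growth.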 Activity calls are given as the source filed them. Rule as the data show it: active = GI50 up to about 1.1 µM and inactive = higher.
Tested on: NCI-H322M
Experiment: inhibition of tumour cell growth, NCI panel, 48 h

| SMILES | GI50 |
| --- | --- |
| O=C1CC(=O)NC(NN2C(=O)/C(=C/c3ccc(Cl)c(Cl)c3)N=C2c2ccccc2)=N1 | inactive: 30.1 µM |
| COc1cccc2c1C(=O)c1ccc3cc(CO)cc(O)c3c1C2=O | active: 1.05 µM |
| COc1ccc2[nH]c3c(c2c1)CCN(C)CC3 | inactive: > 100 µM |
| Cc1cc(=O)oc2cc(SC(=O)N(C)C)ccc12 | inactive: > 100 µM |
| C[C@@]12c3c4ccc(C=O)c3Oc3ccc(C=O)c(c31)Oc1c(C=O)ccc(c12)O4 | inactive: > 100 µM |
| CCCCn1cnc2c(c(CC#N)nn2-c2ccccc2)c1=N | inactive: > 100 µM |
| CC1NC(=O)C2=C1C(N)=NC(=O)C2 (stereo not drawn) | inactive: > 100 µM |
| CC1=C(C(=O)CC(=O)C(=O)Nc2ccccc2C(F)(F)F)Sc2ccccc2N1 | inactive: 31.3 µM |
| Cc1ccnc(NS(=O)(=O)c2ccc(NC(=O)c3ccc4nc5ccccc5c(Nc5ccc(S(=O)(=O)Nc6nccc(C)n6)cc5)c4c3)cc2)n1 | inactive: 50.6 µM |
| O=c1c2ncn(C3CCCO3)c2n(-c2ccccc2)c(=S)n1-c1ccccc1 (stereo not drawn) | inactive: > 100 µM |
| CCOC(=O)c1c(SC(=O)c2ccc(C(C)(C)C)cc2)n(-c2ccccc2)c(=S)n(-c2ccccc2)c1=O | inactive: > 100 µM |
| Cc1c(C(=O)N2CCN(c3ccc([N+](=O)[O-])cc3)CC2)[n+]([O-])c2cc(Cl)c(Cl)cc2[n+]1[O-] | inactive: 32.4 µM |
| O=S(=O)(CCBr)CCBr | inactive: 16.8 µM |
| COc1cc([N+](=O)[O-])cc2c1NC(=O)C2(C)SC (stereo not drawn) | inactive: > 100 µM |
| Cc1nc2sc3ccccc3n2c(=O)c1/N=N/c1ccc(Br)cc1 | inactive: > 100 µM |
| COc1ccc(C(=O)C(c2ccc(OC)cc2)C2(O)C(=O)Nc3ccccc32)cc1 (stereo not drawn) | inactive: > 100 µM |
| CC1(C)[C@@H]2C[C@H]1[C@@H](Cc1cccc(C[C@H]3c4cc(-c5ccccn5)ncc4[C@H]4C[C@@H]3C4(C)C)c1)c1cc(-c3ccccn3)ncc12 | inactive: 1.41 µM |
| N#Cc1c(N)nc2c(c1-c1ccc(Br)cc1)CSc1ccccc1-2 | inactive: > 100 µM |
| O=C1OCC2OC(=O)c3cc(O)c(O)c(O)c3-c3c(O)c(O)c(O)c4c3C(=O)OC(C2OC(=O)c2cc(O)c(O)c(O)c2-c2c1cc(O)c(O)c2O)C1OC(=O)C2C4=C(O)C(=O)C23Oc2cc(O)c4c(c2[C@H]13)O[C@H](c1ccc(O)c(O)c1)[C@@H](O)C4 (stereo partly drawn) | inactive: 20.2 µM |
| Cc1nc(C(N)=S)sc1C(=O)C/C(=N/N)C(=O)Nc1ccc(Cl)cc1 | inactive: > 100 µM |
| Cc1ccc(S(=O)(=O)NC(=O)Nc2c(S(N)(=O)=O)cc(S(N)(=O)=O)c(Cl)c2Cl)cc1 | inactive: > 100 µM |
| CCN(CC)CCO[Si](OCCN(CC)CC)(OCCN(CC)CC)OCCN(CC)CC | inactive: > 100 µM |

| SMILES | GI50 |
| --- | --- |
| OC(CCN1CCN(CCOC(c2ccc(F)cc2)c2ccc(F)cc2)CC1)c1ccccc1 (stereo not drawn) | inactive: 15.9 µM |
| CCOC(=O)/C=C/C(Br)=C(Br)/C=C/C(=O)OCC | inactive: > 100 µM |
| O=C1NC(N/N=C/c2ccccc2)=N/C1=C\c1ccco1 | inactive: 46.1 µM |
| Nc1nc(Cl)cc(NCCCCO)n1 | inactive: > 100 µM |
| CCOC(=O)c1c2c(n(-c3ccc(OC)cc3)c1C)C(=O)C(=O)c1ccccc1-2 | inactive: 1.77 µM |
| NS(=O)(=O)c1ccc(NCc2cccc3c(=O)c4ccc(Cl)cc4oc23)cc1 | inactive: > 60.7 µM |
| c1cncc(C2c3[nH]c4ccccc4c3CCN2CCCN2CCCCC2)c1 (stereo not drawn) | inactive: > 100 µM |
| COc1ccc(NC(=S)N/N=C(\C)c2nc3cccnc3[nH]2)cc1 | inactive: 5.93 µM |
| O=[N+]([O-])c1ccc(-c2nc3ccccc3o2)cc1 | inactive: > 100 µM |
| CC(C)=CCC/C(C)=C/CO [GERANIOL] | inactive: > 100 µM |
| O=C(/C=C/c1ccsc1)c1cccs1 | inactive: > 100 µM |
| CCC(c1ccc(N(C)C)cc1)C1NC(=S)NC1=O (stereo not drawn) | inactive: > 100 µM |
| Nc1nc(S)c2c(N)n[nH]c2c1C(=O)Nc1ccc(Cl)cc1 | inactive: 87.1 µM |
| CCOC(=O)N(C)C(=C(F)F)C(F)(F)F | inactive: 50.2 µM |
| Cc1cnc2[nH]c(-c3cccc(Cl)c3)cc(=O)c2c1 | active: 0.0813 µM |
| CCCCC#CS(=O)(=O)C(F)(F)F | inactive: > 100 µM |
| C/C(=N\NC(N)=S)c1ccc(C)cc1C | inactive: > 100 µM |
| Cc1cc(C)c2c(O)cc(-c3cccc(Cl)c3)nc2n1 | active: 0.366 µM |
| C/C(=N/Nc1nc(C)cc(O)n1)C(=O)O | inactive: > 100 µM |
| c1ccc(CNc2ncnc3nn[nH]c23)cc1 | inactive: > 100 µM |
| CO[C@@H]1C[C@H]2N3CC[C@@]2(c2cc4c(cc2C3)OCO4)[C@H]2O[C@@H]12 | inactive: > 100 µM |
| O=C(O)CNc1cc(-c2ccccc2)nc(NCC(=O)O)n1 | inactive: > 100 µM |

| SMILES | GI50 |
| --- | --- |
| N#Cc1c(O)nc2nn3c4ccc5ccccc5c4nnc3c2c1-c1ccc(Cl)cc1 | inactive: 3.91 µM |
| C=CC1=CSNN1 | inactive: > 100 µM |
| COC(=O)CN1CCS/C1=N/C#N | inactive: > 100 µM |
| COc1cc(/C=C2\C[C@H]3[C@@H]4CC=C5C=C(N6CCCC6)CC[C@]5(C)[C@H]4CC[C@]3(C)C2=O)cc(OC)c1OC | inactive: 9.89 µM |
| CC1=C(/C(C)=N/NC(=O)C(N)=O)Sc2ccccc2N1 | inactive: > 100 µM |
| C=CCN1C(=O)C/C(=C2/CCC(=O)N2CC=C)C1=O | inactive: > 100 µM |
| CO[C@@](c1ccccc1)(c1nc(C#N)c(N)o1)C(F)(F)F | inactive: > 100 µM |
| CCN(CC)CCC(=O)Nc1ccc2c(c1)C(=O)c1ccc(NC(=O)CCN(CC)CC)cc1C2=O | inactive: 3.81 µM |
| O=C(N/N=C/C=C/c1ccccc1)[C@H](O)[C@@H](O)C(=O)N/N=C/C=C/c1ccccc1 | inactive: > 100 µM |
| C[N+]1(CCC(=O)c2ccco2)CC2CCC(CC2)C1 (stereo not drawn) | inactive: > 100 µM |
| NN/C(=N\S(=O)(=O)c1cc(Cl)c(Oc2ccc([N+](=O)[O-])cc2Cl)c(Cl)c1)Nc1ccc(Cl)cc1 | inactive: 22.9 µM |
| CC1(C)N=C(N)N=C(N)N1c1ccc(CCCCc2ccc(S(=O)(=O)F)cc2Cl)c(Cl)c1 | inactive: 10.8 µM |
| CCCC(O)[C@@]1(CC)CC(C)C(O)(C2(C)C[C@H](C)[C@@H](C(CC)C(=O)C(C)[C@@H](O)[C@H](C)C3OC(O)(C(CC)C(=O)O)[C@@H](C)C(O)C3CC)O2)O1 (stereo partly drawn) | inactive: 1.17 µM |
| CCOC(=O)N1C=NC23C(c4ccccc4)C(c4ccccc4)C12C(=O)N(C)C(=O)N3C (stereo not drawn) | inactive: > 100 µM |
| Nc1ccccc1C(=O)NNC(=O)c1ccccc1N | inactive: > 100 µM |
| COc1cc(C2C(Cl)C(=O)N2n2cnc3ccccc3c2=O)ccc1O (stereo not drawn) | inactive: > 100 µM |
| CC(C)C[C@H]1[C@@H](OCc2ccccc2)COS(=O)N1[C@H](C)c1ccccc1 (stereo partly drawn) | inactive: 16 µM |
| CN(C)CCCNc1ccc2ncn3c4ccccc4c(=O)c1c23 | inactive: 7.53 µM |
| COc1ccc2c(c1)c1nn(CCN(C)C)c3ccc4c(=O)n(CCN(C)C)c(=O)n2c4c13 | active: < 0.01 µM |
| Nc1ccc(/N=N/c2c(S(=O)(=O)O)cc3ccccc3c2S(=O)(=O)O)cc1 | inactive: > 100 µM |
| Cc1ccc(S(=NS(=O)(=O)c2ccc(C)cc2)c2ccc(C)cc2)cc1 | inactive: > 100 µM |
| CCOC(=O)C#Cc1ccccc1 | inactive: 17.6 µM |

| SMILES | GI50 |
| --- | --- |
| COc1cc(C(=O)Nc2nnc(S(N)(=O)=O)s2)cc(OC)c1OC | inactive: > 100 µM |
| Cc1cc2c(C(C)C)c(O)c(O)c(C=O)c2c(O)c1-c1c(C)cc2c(C(C)C)c(O)c(O)c(C=O)c2c1O [GOSSYPOL] | inactive: 3.24 µM |
| CCCN1CC=CCC1 | inactive: > 100 µM |
| O=C1OC(=O)C23CSCC12C1C=CC3O1 (stereo not drawn) | inactive: > 100 µM |
| CN(C)S(=O)(=O)Nc1ccccn1 | inactive: > 100 µM |
| C=C(C)C(=O)O[C@H]1C[C@@]23O[C@@H]2CCC(=C[C@H]2OC(=O)C(=C)[C@H]12)COC3O (stereo partly drawn) | inactive: > 100 µM |
| COc1ccccc1C1c2cc3c(cc2OC(O)(CO)C1C(=O)O)OCO3.COc1ccccc1C1c2cc3c(cc2OC2(O)COC(=O)C12)OCO3 (stereo not drawn) | inactive: > 100 µM |
| C=C(CCC(C(=O)O)C1CCC2(C)C3=C(CCC12C)C1(C)CCC(O)C(C)(C)C1CC3)C(C)C (stereo not drawn) | inactive: 36 µM |
| COC(=O)NC1C(C)OC(OC2C/C=C(/C)C3C=CC4C(OC5CC(OC6CC(OC7CC(O)C(O)C(C)O7)C(OC7CC(O)C(OC)C(C)O7)C(C)O6)C(O)C(C)O5)C(C)CC(C)C4C3(C)C(=O)C3=C(O)C4(CC(C)C(CO)=CC4/C=C\2C)OC3=O)CC1(C)[N+](=O)[O-] (stereo not drawn) | inactive: 10.6 µM |
| CC(C)(C)OC(=O)NCCCCC1NC(=O)[C@@H]2Cc3c([nH]c4ccccc34)C(c3ccccc3)N2C1=O (stereo partly drawn) | inactive: 41.7 µM |
| N#C/C(=C\c1ccc2[nH]ccc2c1)C(=O)NCCCCNC(=O)/C(C#N)=C/c1ccc2[nH]ccc2c1 | inactive: > 31.6 µM |
| CC(C)(C)c1cc(C2c3cc4c(cc3OC(O)(CO)C2C(=O)O)OCO4)cc(C(C)(C)C)c1O.CC(C)(C)c1cc(C2c3cc4c(cc3OC3(O)COC(=O)C23)OCO4)cc(C(C)(C)C)c1O (stereo not drawn) | inactive: 14.4 µM |
| CC(C)(N)CO[C@H]1C[C@H]2CC[C@@]1(C)C2(C)C | inactive: 18.6 µM |
| COC(=O)C(O)P(=O)(OC)OC (stereo not drawn) | inactive: > 100 µM |
| C[n+]1c2ccccc2c(NCC(=O)O)c2ccccc21 | inactive: > 100 µM |
| C/C=C/C=C\C=C/C(O)C(C)C(CCC(C)C1OC(=O)C=CC1C)OP(=O)(O)O (stereo not drawn) | active: 0.555 µM |
| C=C1C(=O)OC2/C=C(\C)C(O)/C=C\C(C)(O)CC(OC(=O)/C(C)=C/C)C12 (stereo not drawn) | inactive: > 100 µM |
| COC(=O)/C=C1\C(=O)Nc2ccc(Br)cc21 | inactive: 2.04 µM |
| COc1ccc(C2C(Cl)C(=O)N2n2cnc3ccccc3c2=O)cc1 (stereo not drawn) | inactive: > 100 µM |
| CCOC(=O)C(O)(CC1=NC(C(=O)OC)(C(=O)OC)C(c2cccc(C=O)c2)O1)C(=O)OCC (stereo not drawn) | inactive: > 100 µM |
| c1ccc2sc(C3(N4CCCCC4)CCCC3)cc2c1 | inactive: 11.1 µM |
| Cc1c2cc[n+](C)cc2c(C)c2c1oc1ccccc12 | inactive: 4.21 µM |
